# According to PubChem BioAssay (Tox21):
# The inconclusive results got no clear call from the source; some entries with a clear call stand among them for comparison. For some assays here: Where the call is inconclusive, the potency comes from a doubtful curve fit. More than one record can exist for a structure, and the calls need not agree. Active and inactive are the calls of the source. Unless noted, calls come from the whole dose curve; as a rule, active = well fitted curve in the direction sought with a large enough effect in the repeat runs; inconclusive = weak or mixed curves; inactive = no such curve, though single readings can be large; an effect the other way counts as inactive or inconclusive.
# Key:
# [1] = target: Estrogen receptor beta (Homo sapiens) (UniProt Q92731); experiment: qHTS assay to identify small molecule agonists of the estrogen receptor beta (ER-beta) signaling pathway (AID 1259377; active = well fitted activation curve with a large enough effect in the signal ratio in the repeat runs, not every such curve was filed as active; inconclusive = weak or mixed curves, or effect the other way; the % refers to the signal ratio; note: potency is the fitted concentration of half-maximal effect; for activation: % is set by controls: 0 for no effect and ±100 for the full control effect); conditions: ER-beta-UAS-bla HEK293T, beta-lactamase FRET ratio, 16 h; activation: at 92.4 µM (top of the series) unless noted
# In short: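 Beta-lactamase reporter readout: fluorescence of LiveBLAzer B/G FRET substrate after 2 h at room temperature, following 16 h compound treatment of ER-beta-UAS-bla HEK293T cells at 37C in 2% charcoal-stripped FBS medium.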
# [2] = target: Estrogen receptor beta (Homo sapiens) (UniProt Q92731); experiment: qHTS assay to identify small molecule antagonists of the estrogen receptor beta (ER-beta) signaling pathway (AID 1259378; active = well fitted inhibition curve with a large enough effect in the signal ratio in the repeat runs, not every such curve was filed as active; inconclusive = weak or mixed curves, or effect the other way; inactive = no such curve, though single readings can be large or run the other way; the % refers to the signal ratio; note: % is set by controls: 0 for no effect and ±100 for the full control effect); conditions: ER-beta-UAS-bla HEK293T, beta-lactamase FRET ratio, 16 h; activity, negative = inhibition: at 92.4 µM (top of the series) unless noted
# In short: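 Antagonist mode: compounds added to beta-lactamase reporter HEK293T ER-beta-UAS cells stimulated with E2 (1nM final), 16 hr at 37C. LiveBLAzer B/G FRET substrate, 2 hours room temperature, fluorescence read-out.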
# [3] = qHTS assay to identify small molecule agonists of the estrogen receptor beta (ER-beta) signaling pathway - cell viability counter screen (AID 1259380); note: nearly all actives have a fitted effect of over 30% in size; note: potency is the fitted concentration of half-maximal effect
# In short: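 Measured: luminescence from CellTiter-Glo after 30 min at room temperature, added to wells already read for the LiveBLAzer FRET reporter (2 hr substrate); ER-beta-UAS-bla HEK293T cells had 16 hr compound treatment at 37C, 5% CO2.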
# [4] = qHTS assay to identify small molecule antagonists of the estrogen receptor beta (ER-beta) signaling pathway - cell viability counter screen (AID 1259382); note: potency is the fitted concentration of half-maximal effect; nearly all actives have a fitted effect of over 55% in size
# In short: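 Readout: luminescence, CellTiter-Glo, same wells as bla assay. System: ER-beta-UAS-bla GripTite HEK293T, 2% charcoal-stripped FBS. Exposure: compounds plus 1nM 17-beta-estradiol, 16 hr, 37C.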
# [5] = target: Progesterone receptor (Homo sapiens) (UniProt P06401); experiment: qHTS assay to identify small molecule antagonists of the progesterone receptor (PR) signaling pathway (AID 1346795; active = well fitted inhibition curve with a large enough effect in the signal ratio in the repeat runs, not every such curve was filed as active; inconclusive = weak or mixed curves; the % refers to the signal ratio; note: potency is the fitted concentration of half-maximal effect; for activity change, negative = inhibition: % is set by controls: 0 for no effect and ±100 for the full control effect); conditions: PR-UAS-bla HEK293T, beta-lactamase FRET ratio, 16 h; activity change, negative = inhibition: at 92.4 µM (top of the series) unless noted
# In short: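 Beta-lactamase reporter, HEK293T PR-UAS-bla line; 2% charcoal-stripped FBS; 6 hr pre-incubation, 37C/5% CO2. Compound + R5020 1 nM final, 16 hr. LiveBLAzer B/G FRET substrate, 2 hr RT; fluorescence intensity read.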
# [6] = qHTS assay to identify small molecule antagonists of the progesterone receptor (PR) signaling pathway - cell viability counter screen (AID 1346798); note: nearly all actives have a fitted effect of over 50% in size; note: potency is the fitted concentration of half-maximal effect
# In short: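 Luminescence readout (CellTiter-Glo, 30 min, RT) of viability in PR-UAS-bla HEK293T cells exposed to compound and R5020 agonist for 16 hr at 37C, 5% CO2; run in the same wells as the beta-lactamase reporter read.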
# [7] = qHTS assay to identify small molecule agonists of the progesterone receptor (PR) signaling pathway - cell viability counter screen (AID 1346799; calls by dose curve; note: nearly all actives have a fitted effect of over 45% in size; note: potency is the fitted concentration of half-maximal effect)
# In short: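 HEK293T PR-UAS-bla, 3,000 cells/well, 2% charcoal-stripped FBS; 6 h settle, compound 16 h at 37C/5% CO2; LiveBLAzer 2 h RT, then CellTiter-Glo 30 min RT, luminescence read.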
# [8] = qHTS assay to identify small molecule agonists of the androgen receptor (AR) signaling pathway in the presence of an antagonist - cell viability counter screen (AID 1259379); note: nearly all actives have a fitted effect of over 25% in size; note: potency is the fitted concentration of half-maximal effect
# In short: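 MDA-kb2 viability measured by CellTiter-Fluor fluorescence in the same wells as the luciferase signal; nilutamide 3.0uM final; 15-point compound titration; 16 hr at 37C.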
# [9] = target: Progesterone receptor (Homo sapiens) (UniProt P06401); experiment: qHTS assay to identify small molecule agonists of the progesterone receptor (PR) signaling pathway (AID 1346784; calls by dose curve; note: potency is the fitted concentration of half-maximal effect; nearly all actives have a fitted effect of over 30% in size); conditions: PR-UAS-bla HEK293T, beta-lactamase FRET ratio, 16 h; activation: at 92.4 µM (top of the series) unless noted
# In short: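 HEK 293T PR-UAS-bla reporter cells, 2% charcoal-stripped FBS; 6 hr settle at 37C/5% CO2, compound (DMSO) 16 hr, LiveBLAzer B/G FRET substrate 2 hr RT, fluorescence intensity read.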
# [10] = qHTS assay to identify small molecule agonists of the estrogen receptor alpha (ER-alpha) signaling pathway in the presence of an antagonist - cell viability counter screen (AID 1259386);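 note: cells exposed to compounds for 22 h at 37 °C before the viability read; nearly all actives have a fitted effect of over 30% in size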; note: potency is the fitted concentration of half-maximal effect
# In short: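 The test measures whether compounds kill ER-alpha reporter cells (VM7Luc4E2) under antagonist co-treatment (ICI-182,780, 10.0nM). Fluorescence from CellTiter-Fluor is read after a 22hr exposure.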
# [11] = target: Thyrotropin-releasing hormone receptor (Homo sapiens) (UniProt P34981); experiment: qHTS assay to identify small molecule antagonists of the thyrotropin-releasing hormone receptor (TRHR) signaling pathway (AID 1346877; active = well fitted inhibition curve with a large enough effect in the repeat runs, not every such curve was filed as active; inconclusive = weak or mixed curves; note: % is set by controls: 0 for no effect and ±100 for the full control effect)
# In short: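 Overnight-plated (18 h, 37 °C) HEK293 cells expressing TRHR were dye-loaded 2 h, treated with compound, then stimulated with TRH at 1 nM final. Fluorescence intensity was captured every second for 3 min.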
# Tags give direction and shape of the fitted curve or compound fluorescence and quenching.
# UniProt P06401, sequence (P06401 whole entry, looked up): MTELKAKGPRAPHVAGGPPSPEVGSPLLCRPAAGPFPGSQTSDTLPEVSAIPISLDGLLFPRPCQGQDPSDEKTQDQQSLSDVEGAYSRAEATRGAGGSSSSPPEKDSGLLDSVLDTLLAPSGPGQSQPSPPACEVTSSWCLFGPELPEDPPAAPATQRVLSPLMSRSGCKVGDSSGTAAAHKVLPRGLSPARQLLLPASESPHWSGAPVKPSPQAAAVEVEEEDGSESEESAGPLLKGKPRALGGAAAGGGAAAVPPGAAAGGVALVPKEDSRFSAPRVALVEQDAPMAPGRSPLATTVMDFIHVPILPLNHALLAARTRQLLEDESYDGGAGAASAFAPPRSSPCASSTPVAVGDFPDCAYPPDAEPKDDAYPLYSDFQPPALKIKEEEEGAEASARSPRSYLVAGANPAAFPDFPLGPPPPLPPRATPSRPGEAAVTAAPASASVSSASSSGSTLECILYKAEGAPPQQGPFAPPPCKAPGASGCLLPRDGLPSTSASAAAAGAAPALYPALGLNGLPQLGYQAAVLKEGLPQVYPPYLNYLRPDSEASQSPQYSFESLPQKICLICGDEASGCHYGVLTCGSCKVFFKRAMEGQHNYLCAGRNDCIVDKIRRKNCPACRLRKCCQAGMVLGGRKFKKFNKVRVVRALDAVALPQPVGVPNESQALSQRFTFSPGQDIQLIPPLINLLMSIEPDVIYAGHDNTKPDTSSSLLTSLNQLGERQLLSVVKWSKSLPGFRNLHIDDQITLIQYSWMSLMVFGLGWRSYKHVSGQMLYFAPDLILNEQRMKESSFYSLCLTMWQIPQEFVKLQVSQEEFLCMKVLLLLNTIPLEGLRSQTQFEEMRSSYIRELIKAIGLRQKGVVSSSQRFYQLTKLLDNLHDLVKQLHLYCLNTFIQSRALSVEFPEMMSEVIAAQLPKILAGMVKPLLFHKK
# UniProt Q92731, sequence (Q92731 whole entry, looked up): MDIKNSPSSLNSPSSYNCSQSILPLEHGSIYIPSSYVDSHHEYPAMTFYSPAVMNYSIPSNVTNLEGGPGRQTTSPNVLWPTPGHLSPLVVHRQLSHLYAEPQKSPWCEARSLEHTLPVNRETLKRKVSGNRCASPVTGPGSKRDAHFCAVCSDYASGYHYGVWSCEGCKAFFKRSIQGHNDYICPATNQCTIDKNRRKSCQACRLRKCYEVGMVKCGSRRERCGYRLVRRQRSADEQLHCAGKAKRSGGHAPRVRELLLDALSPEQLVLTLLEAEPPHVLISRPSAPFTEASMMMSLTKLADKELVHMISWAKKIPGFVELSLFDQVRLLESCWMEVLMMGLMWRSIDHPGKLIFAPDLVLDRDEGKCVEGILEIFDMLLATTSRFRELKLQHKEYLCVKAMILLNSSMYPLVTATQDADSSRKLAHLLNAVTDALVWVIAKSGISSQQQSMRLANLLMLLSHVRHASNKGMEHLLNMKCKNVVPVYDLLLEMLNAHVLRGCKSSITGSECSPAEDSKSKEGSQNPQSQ
# UniProt P34981, sequence (P34981 whole entry, looked up): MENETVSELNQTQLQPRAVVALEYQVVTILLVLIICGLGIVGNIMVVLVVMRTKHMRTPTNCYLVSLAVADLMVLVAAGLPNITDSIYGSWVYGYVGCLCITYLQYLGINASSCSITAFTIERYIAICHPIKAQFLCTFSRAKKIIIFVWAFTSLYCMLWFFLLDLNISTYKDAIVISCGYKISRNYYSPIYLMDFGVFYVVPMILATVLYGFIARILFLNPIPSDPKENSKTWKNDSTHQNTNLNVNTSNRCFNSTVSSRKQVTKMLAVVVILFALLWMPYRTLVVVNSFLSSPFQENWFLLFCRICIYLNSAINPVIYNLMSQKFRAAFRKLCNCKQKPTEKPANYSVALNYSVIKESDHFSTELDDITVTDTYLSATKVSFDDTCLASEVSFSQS
compound,measurement,setting,value
Nc1cccc(C(F)(F)F)c1,Potency,[1],inactive
CCOc1ccc(NS(=O)(=O)c2ccc(N)cc2)nn1,Potency,[1],inactive
O=C(O)c1cccnc1Nc1cccc(C(F)(F)F)c1,Potency,[1],"inconclusive: 16.8 µM [rising, partial curve]"
same,"activity, negative = inhibition",[2],inconclusive: -44.6% [at 42.5 µM]
same,Potency,[3],"inconclusive: 11.9 µM [cytotoxic, single point]"
same,Potency,[4],"inconclusive: 11.9 µM [cytotoxic, single point]"
same,"activity change, negative = inhibition",[5],inconclusive: -31.9% [at 42.5 µM]
same,Potency,[6],"inconclusive: 6.68 µM [cytotoxic, partial curve]"
same,Potency,[7],"inconclusive: 8.41 µM [cytotoxic, partial curve]"
CC(=O)Nc1cccc(O)c1,Potency,[1],"inconclusive: 18.8 µM [rising, partial curve, poor fit]"
same,Potency,[8],inactive
same,Potency,[9],active: 24.2 µM
same,Potency,[7],"inconclusive: 30.5 µM [rising, partial curve]"
Nc1ccc(C(=O)Oc2ccccc2)c(O)c1,Potency,[1],inconclusive: 13.3 µM [fluorescent]
same,"activity, negative = inhibition",[2],inconclusive: -48.9% [at 42.5 µM]
same,Potency,[5],active: 23.7 µM
COC(=O)c1ccc(I)cc1S(=O)(=O)NC(=O)Nc1nc(C)nc(OC)n1,activation,[1],inconclusive: 2.69%
same,"activity, negative = inhibition",[2],inconclusive: 21.4%
same,Potency,[3],inactive
same,Potency,[7],inactive
COc1cc([N+](=O)[O-])ccc1N,Potency,[1],inactive
same,Potency,[8],active: 34.4 µM
same,Potency,[10],active: 38.6 µM
same,Potency,[5],"inconclusive: 34.4 µM [falling, partial curve]"
CCOC(=O)C1CC(=O)C(=C(O)C2CC2)C(=O)C1 (stereo unspecified),Potency,[1],inactive
same,Potency,[8],inactive
same,Potency,[3],"inconclusive: 15.4 µM [rising, partial curve, poor fit]"
same,Potency,[5],inactive
CCCC(=O)OCC,Potency,[1],inactive
same,Potency,[3],"inconclusive: 24.3 µM [rising, single point]"
same,Potency,[10],inactive
same,Potency,[5],inactive
same,Potency,[6],inactive
same,Potency,[11],inactive
O=[N+]([O-])c1ccc(O)cc1C(F)(F)F,Potency,[1],inactive
same,"activity, negative = inhibition",[2],inconclusive: -31.7%
same,Potency,[10],active: 27.3 µM
same,Potency,[5],"inconclusive: 61.1 µM [falling, partial curve, poor fit]"
same,Potency,[7],"inconclusive: 12.2 µM [rising, full curve, poor fit]"
C=CC(=O)NCOCCCC,activation,[1],inconclusive: 11%
same,Potency,[3],inactive
